{
  "source": "PubChem BioAssay AID248",
  "about": "(DTP/NCI, 2004)",
  "tested_on": "L1210 leukemia ip in BDF1 mice, survival T/C",
  "assay": "NCI In Vivo Anticancer Drug Screen. Data for tumor model L1210 Leukemia (intraperitoneal) in B6D2F1 (BDF1) mice",
  "conditions": "vehicle: saline, higher = longer survival",
  "note": "Toxic doses and inconclusive results are not listed. Certain results were filed several times, with different values. The list is limited to them. The source may hold further records. Results that share an entry differ, and nothing given here explains why; they may come from other doses, times, organisms or constructs than stated.",
  "data": [
    {"smiles": "CC(=O)NC1=C(N2CC2C)C(=O)C(NC(C)=O)=C(N2CC2C)C1=O", "note": "(configuration not stated)", "values": [
      {"measurement": "T/C", "setting": "endpoint: mean survival time, dose: 5.0 mg/kg/injection, schedule: Q01DX Z (ip)", "result": "110 % of control and 182 % of control"}
    ]},
    {"smiles": "C=CCNC(=O)NCC=C", "values": [
      {"measurement": "T/C", "setting": "endpoint: median survival time, dose: 100.0 mg/kg/injection, schedule: Q01DX009 (ip)", "result": "100 % of control, 122 % of control, 155 % of control"}
    ]}
  ]
}
